One molecule from patent publication US20210324087A1 (CRAGE MEDICAL, published 2021) can be followed below.

The target in the test is T1, mouse CLL1-hFc (mouse; human, UniProt Q504P2 65-267, limits assumed).
T1 construct: also called murine CLL1; not shown: human Fc
T1 sequence (looked up): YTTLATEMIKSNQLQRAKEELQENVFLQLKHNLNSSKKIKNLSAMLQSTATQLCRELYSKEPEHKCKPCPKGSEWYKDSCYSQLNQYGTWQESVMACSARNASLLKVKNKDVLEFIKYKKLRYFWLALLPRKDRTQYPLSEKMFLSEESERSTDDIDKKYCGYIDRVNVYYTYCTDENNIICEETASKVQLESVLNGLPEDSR
Kind of test: ELISA, plate coated with 1 ug/ml mouse CLL1-hFc, scFv detected with anti-His. On the procedure:
The species specificity of antibodies 7F8 and 12G4m was detected by standard ELISA. ELISA plates were coated with 1 ug/ml of Human CLL1-hFc, mouse CLL1-hFc, monkey CLL1-hFc at 4° C. overnight, blocked with 2% MPBS for 1-2 hours at room temperature, and 200 nM antibody 7F8/12G4m (scFv) was added to incubate at room temperature for 1 hour. The secondary antibody was diluted at 1:1000 with anti-His mouse monoclonal antibody, and the third antibody was goat anti-mouse-HRP diluted at 1:2000. After incubating for 1 hour at room temperature, the plates were developed and read at OD450 after quenching with 1 M concentrated sulfuric acid, as shown in FIG. 7. Antibodies 7F8 and 12G4m only bind to human CLL1, but not to murine CLL1 and monkey CLL1.

B1: 7F8 scFv (scFv)
scFv: [about 100 residues left out here]EYYFGYYGYLDYWGQGTLVTVSSGGGGSGGGGSGGGGSDIQMTQSPSTLSASVGDRVTITCRASQWIARWLAWYQQKPGKAPKLLIKDASNLESGVPSRFSGSGSGTEFTLTISSLQPDDFATYYCQQYYSYPMITFGQGTKVEIKR
notes: also called antibody 7F8
As to B1, the binding result is recorded as “no binding (tested: 200 nM)”.
